# Assay results: the supplement of paper PMC8728848
# Some of the results follow.
# B1: XL-35 (Xenopus laevis) (protein)
# chain: MLVHILLLLVTGGLSQSCDPVVIVASKNMVKQLDCDKFRNCKEIKDSNEEAQDGIYTLTSPDGISYQTFCDMTTNGGGWTLVASVHENNMAGKCTIGDRWSSQQGNRADYPEGDGNWANYNTFGSAGGATSDDYKNPGYYDIEAYNLGVWHVPNKTPLSVWRNSSLQRYRTTDGILFKHGGNLFSLYRIYPVKYGIGSCSKDSGPTVPVVYDLGSANLTASFYSPGFRSQFTPGYIQFRPINTEKAALALCPGMKMESCNVEHVCIGGGGYFPEADPRQCGDFAAYDFNGYGTKKFNSAGIEITEAAVLLFYL
# How the values were obtained:
# Assay in all cases: glycan array binding signal (z-score within array); higher = stronger binding
# Conditions in all cases: glycan notation: IUPAC condensed, linker removed
# [1] = target: Neu5Ac(a2-3)Gal(b1-4)GlcNAc(b1-3)[Neu5Ac(a2-3)Gal(b1-4)GlcNAc(b1-6)]GalNAc
# Summary of the method: (§1)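 Columns mapping to the same glycan were averaged after glycan names were converted to IUPAC-condensed notation. The data come from 3228 arrays in the Consortium for Functional Glycomics database, limited to those with an available protein sequence. Binding is reported as a within-array Z-score averaged across arrays of one protein sequence and across linkers.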
# [2] = target: Neu5Ac(a2-3)Gal(b1-4)GlcNAc(b1-6)GalNAc
# Summary of the method: as §1
# [3] = target: Neu5Ac(a2-3)Gal(b1-4)GlcNAc(b1-6)[Gal(b1-3)]GalNAc
# Summary of the method: as §1
# [4] = target: Neu5Ac(a2-3)Gal(b1-4)GlcNAc(b1-6)[Neu5Ac(a2-3)Gal(b1-3)]GalNAc
# Summary of the method: as §1
# [5] = target: Neu5Ac(a2-3)Gal(b1-4)GlcNAc6S
# Summary of the method: as §1
# [6] = target: Neu5Ac(a2-3)Gal(b1-4)[Fuc(a1-3)]GlcNAc
# Summary of the method: as §1
# [7] = target: Neu5Ac(a2-3)Gal(b1-4)[Fuc(a1-3)]GlcNAc(b1-2)Man
# Summary of the method: as §1
# [8] = target: Neu5Ac(a2-3)Gal(b1-4)[Fuc(a1-3)]GlcNAc(b1-3)Gal
# Summary of the method: as §1
# [9] = target: Neu5Ac(a2-3)Gal(b1-4)[Fuc(a1-3)]GlcNAc(b1-3)Gal(b1-4)GlcNAc
# Summary of the method: as §1
# [10] = target: Neu5Ac(a2-3)Gal(b1-4)[Fuc(a1-3)]GlcNAc(b1-3)Gal(b1-4)[Fuc(a1-3)]GlcNAc(b1-3)Gal(b1-4)[Fuc(a1-3)]GlcNAc
# Summary of the method: as §1
# [11] = target: Neu5Ac(a2-3)Gal(b1-4)[Fuc(a1-3)]GlcNAc(b1-3)GalNAc
# Summary of the method: as §1
# [12] = target: Neu5Ac(a2-3)Gal(b1-4)[Fuc(a1-3)]GlcNAc(b1-6)[Gal(b1-3)]GalNAc
# Summary of the method: as §1
# [13] = target: Neu5Ac(a2-3)Gal(b1-4)[Fuc(a1-3)]GlcNAc(b1-6)[Neu5Ac(a2-3)Gal(b1-3)]GalNAc
# Summary of the method: as §1
# [14] = target: Neu5Ac(a2-3)Gal(b1-4)[Fuc(a1-3)]GlcNAc6S
# Summary of the method: as §1
# [15] = target: Neu5Ac(a2-3)Gal6S(b1-4)GlcNAc
# Summary of the method: as §1
# [16] = target: Neu5Ac(a2-3)Gal6S(b1-4)[Fuc(a1-3)]GlcNAc
# Summary of the method: as §1
# Neu5Ac(a2-3)GalNAc = target: Neu5Ac(a2-3)GalNAc
# Summary of the method: as §1
# [17] = target: Neu5Ac(a2-3)GalNAc(b1-4)GlcNAc
# Summary of the method: as §1
# [18] = target: Neu5Ac(a2-3)[GalNAc(b1-4)]Gal(b1-4)Glc
# Summary of the method: as §1
# [19] = target: Neu5Ac(a2-3)[GalNAc(b1-4)]Gal(b1-4)GlcNAc
# Summary of the method: as §1
# [20] = target: Neu5Ac(a2-3)[GalNAc(b1-4)]Gal(b1-4)GlcNAc(b1-3)GalNAc
# Summary of the method: as §1
# [21] = target: Neu5Ac(a2-3)[Neu5Ac(a2-6)]GalNAc
# Summary of the method: as §1
# Neu5Ac(a2-6)Gal = target: Neu5Ac(a2-6)Gal
# Summary of the method: as §1
# [22] = target: Neu5Ac(a2-6)Gal(b1-3)GlcNAc(b1-3)[Gal(b1-4)GlcNAc(b1-6)]Gal(b1-4)Glc
# Summary of the method: as §1
# Neu5Ac(a2-6)Gal(b1-4)Glc = target: Neu5Ac(a2-6)Gal(b1-4)Glc
# Summary of the method: as §1
# [23] = target: Neu5Ac(a2-6)Gal(b1-4)GlcNAc
# Summary of the method: as §1
# [24] = target: Neu5Ac(a2-6)Gal(b1-4)GlcNAc(b1-2)Man
# Summary of the method: as §1
# [25] = target: Neu5Ac(a2-6)Gal(b1-4)GlcNAc(b1-2)Man(a1-3)Man(b1-4)GlcNAc(b1-4)GlcNAc
# Summary of the method: as §1
# [26] = target: Neu5Ac(a2-6)Gal(b1-4)GlcNAc(b1-2)Man(a1-3)[Gal(b1-4)GlcNAc(b1-2)Man(a1-6)]Man(b1-4)GlcNAc(b1-4)GlcNAc
# Summary of the method: as §1
# [27] = target: Neu5Ac(a2-6)Gal(b1-4)GlcNAc(b1-2)Man(a1-3)[GlcNAc(b1-2)Man(a1-6)]Man(b1-4)GlcNAc(b1-4)GlcNAc
# Summary of the method: as §1
# [28] = target: Neu5Ac(a2-6)Gal(b1-4)GlcNAc(b1-2)Man(a1-3)[GlcNAc(b1-4)][Neu5Ac(a2-6)Gal(b1-4)GlcNAc(b1-2)Man(a1-6)]Man(b1-4)GlcNAc(b1-4)GlcNAc
# Summary of the method: as §1
binder,measurement,setting,value
B1,glycan array binding signal (z-score),[1],-0.25
same,glycan array binding signal (z-score),[2],-0.331
same,glycan array binding signal (z-score),[3],-0.287
same,glycan array binding signal (z-score),[4],-0.518
same,glycan array binding signal (z-score),[5],0.039
same,glycan array binding signal (z-score),[6],-0.21
same,glycan array binding signal (z-score),[7],0.447
same,glycan array binding signal (z-score),[8],-0.202
same,glycan array binding signal (z-score),[9],0.191
same,glycan array binding signal (z-score),[10],-0.116
same,glycan array binding signal (z-score),[11],0.775
same,glycan array binding signal (z-score),[12],-0.043
same,glycan array binding signal (z-score),[13],-0.067
same,glycan array binding signal (z-score),[14],-0.136
same,glycan array binding signal (z-score),[15],0.029
same,glycan array binding signal (z-score),[16],-0.241
same,glycan array binding signal (z-score),Neu5Ac(a2-3)GalNAc,-0.256
same,glycan array binding signal (z-score),[17],-0.304
same,glycan array binding signal (z-score),[18],-0.177
same,glycan array binding signal (z-score),[19],-0.116
same,glycan array binding signal (z-score),[20],-0.374
same,glycan array binding signal (z-score),[21],0.04
same,glycan array binding signal (z-score),Neu5Ac(a2-6)Gal,-0.04
same,glycan array binding signal (z-score),[22],0.161
same,glycan array binding signal (z-score),Neu5Ac(a2-6)Gal(b1-4)Glc,-0.058
same,glycan array binding signal (z-score),[23],-0.102
same,glycan array binding signal (z-score),[24],-0.003
same,glycan array binding signal (z-score),[25],-0.107
same,glycan array binding signal (z-score),[26],-0.249
same,glycan array binding signal (z-score),[27],-0.328
same,glycan array binding signal (z-score),[28],-0.412
